Test results: patent US20220313819A1, “COMBINATION THERAPY FOR THE TREATMENT OF SOLID AND HEMATOLOGICAL CANCERS” (Arch Oncology, Inc., priority 2019, published 2022)

What was measured:
[1] = system: hRBCs; test: Hemagglutination of washed human red blood cells; format: cell-based; settings: humanized mAbs, Table 2
Description: Hemagglutination of hRBCs was assessed following incubation of hRBCs with various concentrations of chimeric and humanized VLX4, VLX8, and VLX9 mAbs in vitro essentially as described by Kikuchi et al. Biochem Biophys Res. Commun (2004) 315:912-918. Blood was obtained from healthy donors, diluted (1:50) in PBS/1 mM EDTA/BSA and washed 3 times with PBS/EDTA/BSA. hRBCs were added to U-bottomed 96 well plates with equal volumes of the antibodies (75 μl of each) and incubated for 3 hrs at 37° C. and overnight at 4° C.

[2] = biological target: T1, human CD47 on hRBCs (Homo sapiens, UniProt Q08722); test: Binding to freshly isolated human red blood cells, flow cytometry; settings: result in words
T1 construct: freshly isolated human red blood cells (hRBCs), which display CD47 on their surface; from tissue; host or cells: human blood, washed red blood cells
Description: The binding of chimeric (murine-human) and humanized antibodies of the present disclosure was determined by ELISA using OV10 cells transfected with human CD47 (OV10 hCD47) or using freshly isolated human red blood cells (hRBCs), which display CD47 on their surface (Kamel et al. (2010) Blood. Transfus. 8(4):260-266).
Binding activities of chimeric and humanized VLX4, VLX8, and VLX9 mAbs to human CD47 on hRBCs were also determined using flow cytometry.

Molecule | HA hRBC [1] | binding to human RBCs compared with OV10 hCD47 tumor cells [2]
VLX8hum_06 IgG2: humanized VLX8 anti-CD47 mAb, IgG2 (antibody) heavy: QVQLVQSGAEVKKPGASVKVSCKASGYSFTNYYIHWVRQAPGQGLEWMGYIDPLNGDTTYNQKFKGRVTMTRDTSTSTVYMELSSLRSEDTAVYYCARGGKRAMDYWGQGTLVTVSSASTKGPSVFPLAPCSRSTSESTAALGCLVKDYFPEPVTVSWNSGALTSGVHTFPAVLQSSGLYSLSSVVTVPSSNFGTQTYTCNVDHKPSNTKVDKTVERKCCVECPPCPAPPVAGPSVFLFPPKPKDTLMISRTPEVTCVVVDVSHEDPEVQFNWYVDGVEVHNAKTKPREEQFNSTFRVVSVLTVVHQDWLNGKEYKCKVSNKGLPAPIEKTISKTKGQPREPQVYTLPPSREEMTKNQVSLTCLVKGFYPSDIAVEWESNGQPENNYKTTPPMLDSDGSFFLYSKLTVDKSRWQQGNVFSCSVMHEALHNHYTQKSLSLSPGK light: DIQMTQSPSSLSASVGDRVTITCRASQSISNYLNWYQQKPGKAPKLLIYYTSRLYSGVPSRFSGSGSGTDFTLTISSLQPEDFATYYCQQGNTLPWTFGQGTKVEIKRTVAAPSVFIFPPSDEQLKSGTASVVCLLNNFYPREAKVQWKVDNALQSGNSQESVTEQDSKDSTYSLSSTLTLSKADYEKHKVYACEVTHQGLSSPVTKSFNRGEC | Yes | Kd values similar to the values obtained for OV10 hCD47 tumor cells
VLX8hum_07 IgG2: humanized VLX8 anti-CD47 mAb, IgG2 (antibody) heavy: QVQLVQSGAEVKKPGSSVKVSCKASGYSFTNYYIHWVRQAPGQGLEWMGYIDPLNGDTTYNQKFKGRVTITADESTSTAYMELSSLRSEDTAVYYCARGGKRAMDYWGQGTLVTVSSASTKGPSVFPLAPCSRSTSESTAALGCLVKDYFPEPVTVSWNSGALTSGVHTFPAVLQSSGLYSLSSVVTVPSSNFGTQTYTCNVDHKPSNTKVDKTVERKCCVECPPCPAPPVAGPSVFLFPPKPKDTLMISRTPEVTCVVVDVSHEDPEVQFNWYVDGVEVHNAKTKPREEQFNSTFRVVSVLTVVHQDWLNGKEYKCKVSNKGLPAPIEKTISKTKGQPREPQVYTLPPSREEMTKNQVSLTCLVKGFYPSDIAVEWESNGQPENNYKTTPPMLDSDGSFFLYSKLTVDKSRWQQGNVFSCSVMHEALHNHYTQKSLSLSPGK light: DIQMTQSPSSLSASVGDRVTITCRASQSISNYLNWYQQKPGKAPKLLIYYTSRLYSGVPSRFSGSGSGTDFTLTISSLQPEDFATYYCQQGNTLPWTFGQGTKVEIKRTVAAPSVFIFPPSDEQLKSGTASVVCLLNNFYPREAKVQWKVDNALQSGNSQESVTEQDSKDSTYSLSSTLTLSKADYEKHKVYACEVTHQGLSSPVTKSFNRGEC | Yes | Kd values similar to the values obtained for OV10 hCD47 tumor cells
VLX8hum_08 IgG2: humanized VLX8 anti-CD47 mAb, IgG2 (antibody) heavy: EVQLVQSGAEVKKPGESLKISCKGSGYSFTNYYIHWVRQMPGKGLEWMGYIDPLNGDTTYNQKFKGQVTISADKSISTAYLQWSSLKASDTAMYYCARGGKRAMDYWGQGTLVTVSSASTKGPSVFPLAPCSRSTSESTAALGCLVKDYFPEPVTVSWNSGALTSGVHTFPAVLQSSGLYSLSSVVTVPSSNFGTQTYTCNVDHKPSNTKVDKTVERKCCVECPPCPAPPVAGPSVFLFPPKPKDTLMISRTPEVTCVVVDVSHEDPEVQFNWYVDGVEVHNAKTKPREEQFNSTFRVVSVLTVVHQDWLNGKEYKCKVSNKGLPAPIEKTISKTKGQPREPQVYTLPPSREEMTKNQVSLTCLVKGFYPSDIAVEWESNGQPENNYKTTPPMLDSDGSFFLYSKLTVDKSRWQQGNVFSCSVMHEALHNHYTQKSLSLSPGK light: DIQMTQSPSSLSASVGDRVTITCRASQSISNYLNWYQQKPGKAPKLLIYYTSRLYSGVPSRFSGSGSGTDFTLTISSLQPEDFATYYCQQGNTLPWTFGQGTKVEIKRTVAAPSVFIFPPSDEQLKSGTASVVCLLNNFYPREAKVQWKVDNALQSGNSQESVTEQDSKDSTYSLSSTLTLSKADYEKHKVYACEVTHQGLSSPVTKSFNRGEC | Yes | Kd values similar to the values obtained for OV10 hCD47 tumor cells
VLX8hum_09 IgG2: humanized VLX8 anti-CD47 mAb, IgG2 (antibody) heavy: QVQLVQSGAEVKKPGSSVKVSCKASGYSFTNYYIHWVRQAPGQGLEWMGYIDPLNGDTTYAQKFQGRVTITADESTSTAYMELSSLRSEDTAVYYCARGGKRAMDYWGQGTLVTVSSASTKGPSVFPLAPCSRSTSESTAALGCLVKDYFPEPVTVSWNSGALTSGVHTFPAVLQSSGLYSLSSVVTVPSSNFGTQTYTCNVDHKPSNTKVDKTVERKCCVECPPCPAPPVAGPSVFLFPPKPKDTLMISRTPEVTCVVVDVSHEDPEVQFNWYVDGVEVHNAKTKPREEQFNSTFRVVSVLTVVHQDWLNGKEYKCKVSNKGLPAPIEKTISKTKGQPREPQVYTLPPSREEMTKNQVSLTCLVKGFYPSDIAVEWESNGQPENNYKTTPPMLDSDGSFFLYSKLTVDKSRWQQGNVFSCSVMHEALHNHYTQKSLSLSPGK light: DIQMTQSPSSLSASVGDRVTITCRASQSISNYLNWYQQKPGKAPKLLIYYTSRLYSGVPSRFSGSGSGTDFTLTISSLQPEDFATYYCQQGNTLPWTFGQGTKVEIKRTVAAPSVFIFPPSDEQLKSGTASVVCLLNNFYPREAKVQWKVDNALQSGNSQESVTEQDSKDSTYSLSSTLTLSKADYEKHKVYACEVTHQGLSSPVTKSFNRGEC | Yes | Kd values similar to the values obtained for OV10 hCD47 tumor cells
